Test results published in PubChem BioAssay AID504832 (National Center for Advancing Translational Sciences (NCATS), 2011).
The campaign covered roughly 310,000 compounds. About 18,000 (5.8%) were called active. This list was built around the results that the source calls inconclusive (neither active nor inactive); the mix of calls is not that of the screen. Calls come from the whole dose curve; as a rule, active = well fitted inhibition curve with a large enough effect; inconclusive = small, poorly fitted or top-dose-only effect, or another doubt; inactive = no such curve, though single readings can be large or run the other way. No potency is given beside an inconclusive call; the fits are too rough.

Experiment: Primary qHTS for delayed death inhibitors of the malarial parasite plastid, 48 hour incubation
Conditions: P. falciparum luciferase growth in erythrocytes; series mostly up to 28.7 µM
Outline: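 In quantitative HTS format, infected erythrocytes bearing luciferase-reporter parasites were treated for a single generation at 37 C. Luminescence after adding detection reagent served as the growth measure.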
% is set by controls: 0 for no effect and ±100 for the full control effect; potency is the fitted concentration of half-maximal effect; tags give direction and shape of the fitted curve.

| Structure (SMILES) | Potency | activity change, negative = inhibition |
| --- | --- | --- |
| Cc1cc(NC(=NC2CC2)c2ccccc2)n(-c2ccccc2)n1 | inconclusive [inhibitor, partial curve, poor fit] |  |
| Cc1cc(Br)ccc1NC(=O)c1sc2ncnc(N3CCN(c4ccccn4)CC3)c2c1C | inconclusive [inhibitor, partial curve] |  |
| CCOC(=O)n1c(=O)n(Cc2cccc(F)c2)c2ccccc21 | inactive |  |
| CCN1c2ccc(S(=O)(=O)N3CCOCC3)cc2N(Cc2ccc(OC)cc2)C1C (stereo not given) | inconclusive [inhibitor, single point] |  |
| COc1ccccc1CCn1cnc2c3cc(C)ccc3n(C)c2c1=O | inconclusive [inhibitor, single point] |  |
| CCN1CCN(c2nc(Nc3cccc(OC)c3)nc(N)c2[N+](=O)[O-])CC1 | inconclusive [inhibitor, single point] |  |
| CCN(Cc1ccccc1)C(=O)CSc1nc(C)cc(C)c1C#N | inconclusive [inhibitor, single point] |  |
| Cn1ncc([N+](=O)[O-])c1C(=O)Nc1ccccc1 | inconclusive [inhibitor, full curve, poor fit] |  |
| CC(C)c1ccc(S(=O)(=O)N2CCN(C(=O)C3CCN(C(=O)c4ccc(F)cc4)CC3)CC2)cc1 | inconclusive [inhibitor, single point] |  |
| COC(=O)C1=C(c2cccc(OCc3ccccc3)c2)C[C@@H]2CC[C@H]1N2C(=O)NCc1ccc([N+](=O)[O-])cc1 | active: 11.7 µM |  |
| COc1ccc(-n2nc(C(=O)NCC(=O)NCc3ccc(F)cc3)c3ccccc3c2=O)cc1 | inconclusive [inhibitor, single point] |  |
| CCN1CCN(C(=O)c2ccc3c(=O)n(C4CCCC4)c(=S)[nH]c3c2)CC1 | inconclusive [inhibitor, single point] |  |
| CCNc1nc(NCC)nc(N/N=C/c2ccc(OC)cc2)n1 | inconclusive [inhibitor, single point] |  |
| COc1cc2c(cc1OC)-c1cc(Nc3cccc(F)c3)nc(=O)n1CC2 | inconclusive [inhibitor, full curve] |  |
| Cc1c(/C(O)=C2\C(=O)C(=O)N(CCCN(C)C)C2c2ccccc2)cnn1-c1ccccc1 (stereo not given) |  | inactive: 65.1% [at 5.75 µM] |
| Oc1cc(O)cc(/C=C/c2ccc(O)c(O)c2)c1 | inactive |  |
| CC1CCCN(C(=O)C2CCN(S(=O)(=O)c3cccs3)CC2)C1 (stereo not given) | inconclusive [inhibitor, single point] |  |
| COc1ccc(CCNC(=O)c2c[nH]c3ccccc3c2=O)cc1OC | inconclusive [inhibitor, partial curve] |  |
| O=S(Cc1ccccc1)CC(O)(c1ccc(Cl)cc1)c1ccc(Cl)cc1 (stereo not given) | inconclusive [inhibitor, partial curve, poor fit] |  |
| Oc1ccccc1N1CCN(CC(O)COC2CCCc3ccccc32)CC1 (stereo not given) | active: 9.28 µM |  |
| Cc1nnc(SCC(=O)Nc2ccc(Cl)cn2)[nH]c1=O | inactive |  |
| CCOc1ccccc1-c1nc(-c2ccncc2)no1 | inconclusive [inhibitor, single point] |  |

| Structure (SMILES) | Potency | activity change, negative = inhibition |
| --- | --- | --- |
| O=C(N1CCCC1)C12CC3CC(CC(Cl)(C3)C1)C2 | inconclusive [inhibitor, partial curve, poor fit] |  |
| COc1cc(CN2CCN(Cc3ccccc3C(F)(F)F)CC2)cc(OC)c1OC | inconclusive [inhibitor, single point] |  |
| CCCN(CC(=O)Nc1ccccc1OC)C(=O)CC1CCCC1 | inconclusive [inhibitor, single point] |  |
| CC1N(O)C(c2ccc(Cl)cc2Cl)N(O)C1(C)C (stereo not given) | inconclusive [inhibitor, single point] |  |
| O=C(N/N=C/c1ccc(O)c(Br)c1)c1cc2c(ccc3ccccc32)o1 | inconclusive [inhibitor, single point] |  |
| OCCN(CCO)c1nc(-c2ccccc2)nc2c1oc1ccccc12 | inactive |  |
| CC1CCN(CCCCOc2ccccc2Br)CC1 | inconclusive [inhibitor, single point] |  |
| CCc1ccc(C(=O)CSc2nc3cc(S(=O)(=O)N4CCOCC4)ccc3n2CC)cc1 | inconclusive [inhibitor, single point] |  |
| O=C(C1=C[C@@H](c2ccc(Br)cc2)C[C@@H](OCc2ccc(CO)cc2)O1)N1CCN(Cc2ccc3c(c2)OCO3)CC1 | inconclusive [inhibitor, full curve, poor fit] |  |
| CCOC(=O)c1[nH]c2ccc(OC)cc2c1C(SCC(=O)O)c1ccc(C(F)(F)F)cc1 (stereo not given) | inconclusive [inhibitor, partial curve] |  |
| COc1cccc(Nc2nc(-c3sc(NC(=O)c4ccccc4)nc3C)cs2)c1 | active: 5.22 µM |  |
| CCOC(=O)C1CCN(C(c2cc3ccc(C)cc3[nH]c2=O)c2nnnn2C2CCCCC2)CC1 (stereo not given) | active: 1.04 µM |  |
| CCn1c(SCc2ccc(C)cc2)nnc1-c1cnccn1 | inconclusive [inhibitor, full curve, poor fit] |  |
| O=C(CCc1nnc2ccc(NCc3ccccc3Cl)nn12)N1CCC2(CC1)OCCO2 | inconclusive [inhibitor, partial curve, poor fit] |  |
| COc1ccc(C(CNC(=O)c2cccc(S(=O)(=O)N(C)c3ccccc3)c2)N2CCCC2)cc1 (stereo not given) | inconclusive [inhibitor, partial curve, poor fit] |  |
| Cc1cccc(NC(=O)c2cc([N+](=O)[O-])ccc2Cl)c1O | inconclusive [inhibitor, partial curve, poor fit] |  |
| COCCn1c(C)cc(C(=O)CSc2ccc3ccccc3n2)c1C | inactive |  |
| O=C(c1cccnc1)c1ncc(C(F)(F)F)cc1Cl | inactive |  |
| CCOc1ccc(NC(=O)C(CC)n2nc(C)c3c(C)n(-c4ccccc4)nc3c2=O)cc1 (stereo not given) | inconclusive [inhibitor, partial curve, poor fit] |  |
| CC(=O)NNc1ncnc2c1cnn2-c1ccccc1 | inconclusive [inhibitor, full curve, poor fit] |  |
| CN(C)CCCNC(=O)/C(=C\c1ccc(-c2ccc(Br)cc2)o1)NC(=O)c1ccccc1 | active: 10.4 µM |  |
| COc1ccc(N2CCN(C(=O)CNC(=O)c3ccc4ccccc4c3)CC2)cc1 | inconclusive [inhibitor, full curve, poor fit] |  |

| Structure (SMILES) | Potency | activity change, negative = inhibition |
| --- | --- | --- |
| Cc1ccc(CN2CC(C(=O)Nc3ncccc3C)CC2=O)cc1 (stereo not given) | inactive |  |
| CCN(CC)S(=O)(=O)c1ccc(NC(=O)COC(=O)c2cc(S(=O)(=O)Nc3ccc(OC)cc3)ccc2O)cc1 | inconclusive [inhibitor, single point] |  |
| CN(C)C(CNC(=O)c1ccc(S(=O)(=O)Nc2cccc(C(F)(F)F)c2)cc1)c1ccco1 (stereo not given) | inconclusive [inhibitor, partial curve, poor fit] |  |
| COCCn1c(SCC(=O)Nc2cccc(C)c2)nnc1C(C)C | inactive |  |
| CC(C)N1CCc2c(sc(NC(=O)c3ccco3)c2C(N)=O)C1 | active: 0.465 µM |  |
| Cc1ccc(C(=O)N2C3=C(CCCC3)C(=O)NC23CCCCC3)cc1 | inconclusive [inhibitor, partial curve, poor fit] |  |
| COC(=O)c1cc(NC(=O)c2cc(C(C)(C)C)nn2Cc2ccc(F)cc2)ccc1N1CCOCC1 | active: 6.57 µM |  |
| O=C(c1ccco1)N1CCCC(c2nc3c(nnn3Cc3c(Cl)cccc3Cl)c(=O)[nH]2)C1 (stereo not given) | inconclusive [inhibitor, partial curve] |  |
| Cc1cccn2c(=O)nc(SCC(=O)N3CCCC3)nc12 | inactive |  |
| C=CCSc1nnc2nc3[nH]c4c(C)cccc4c3nn12 | inconclusive [inhibitor, partial curve, poor fit] |  |
| O=C1N(c2ccccc2C(F)(F)F)O[C@]1(c1ccccc1)C1CCCC1 | active: 1.65 µM |  |
| CCN(CC)c1ccc(C(=O)N/N=C/c2ccccc2OC(F)F)cc1 | active: 10.4 µM |  |
| C#CCOCCOCCOCCNc1nc(N2CCOCC2)nc(N2CCN(C(=O)CCCCCCCCCCNC(=O)[C@@H](CCSC)n3cc(CCO)nn3)CC2)n1 | active: 0.657 µM |  |
| COc1ccc(NC(=S)N/N=C/c2cccn2Cc2ccc(F)cc2)cc1 | inconclusive [inhibitor, partial curve, poor fit] |  |
| O=C1CCCc2oc3ccc(NS(=O)(=O)c4cccc5cccnc45)cc3c21 | inconclusive [inhibitor, partial curve, poor fit] |  |
| Cc1ccccc1NS(=O)(=O)c1ccc2[nH]cc(C(=O)NCCc3ccccc3)c(=O)c2c1 | active: 14.7 µM |  |
| CCCSC1=N/C(=C\c2ccc([N+](=O)[O-])o2)C(=O)S1 | inactive |  |
| Cc1nn(-c2ccccc2)c(C)c1C(=O)Nc1nnc(-c2ccco2)o1 | inconclusive [inhibitor, single point] |  |
| CCN(c1ccccc1)S(=O)(=O)c1ccc(OC)c(NC(=O)C2CC2)c1 | inconclusive [inhibitor, partial curve, poor fit] |  |
| Oc1ccc2ccccc2c1C=Nc1ccccc1Br | inactive |  |
| COCCN1C(=O)/C(=C2/C(=O)N(CC(=O)Nc3ccccc3Cl)c3ccccc32)SC1=S | inconclusive [inhibitor, partial curve, poor fit] |  |
